# Laboratory results as given in PubChem BioAssay AID1030 (National Center for Advancing Translational Sciences (NCATS), 2008).
# Among all 220,000 compounds or so, about 16,000 (7.3%) were called active. Inconclusive means that the source gave no clear call. Such entries were picked first, then a sample of the others. The call rests on the fitted dose curve; in most records, active means well fitted inhibition curve with a large enough effect (not every such curve was filed as active); inconclusive means small, poorly fitted or top-dose-only effect, or another doubt; inactive means no such curve, though single readings can be large or run the other way. Potencies of inconclusive entries are left out as doubtful fits.
# Biological target: Aldehyde dehydrogenase 1A1 (Homo sapiens) (UniProt P00352)
# Experiment: qHTS Assay for Inhibitors of Aldehyde Dehydrogenase 1 (ALDH1A1);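 on activity, negative = inhibition: plate controls were no enzyme wells and a reference inhibitor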
# Conditions: Purified ALDH1A1, NADH fluorescence, propionaldehyde substrate; series mostly up to 75.3 µM; activity, negative = inhibition: at the top concentration
# Potency means the concentration at half of the fitted maximal effect; tags describe the fitted curve by direction and shape.
# UniProt P00352, sequence (P00352 whole entry, looked up): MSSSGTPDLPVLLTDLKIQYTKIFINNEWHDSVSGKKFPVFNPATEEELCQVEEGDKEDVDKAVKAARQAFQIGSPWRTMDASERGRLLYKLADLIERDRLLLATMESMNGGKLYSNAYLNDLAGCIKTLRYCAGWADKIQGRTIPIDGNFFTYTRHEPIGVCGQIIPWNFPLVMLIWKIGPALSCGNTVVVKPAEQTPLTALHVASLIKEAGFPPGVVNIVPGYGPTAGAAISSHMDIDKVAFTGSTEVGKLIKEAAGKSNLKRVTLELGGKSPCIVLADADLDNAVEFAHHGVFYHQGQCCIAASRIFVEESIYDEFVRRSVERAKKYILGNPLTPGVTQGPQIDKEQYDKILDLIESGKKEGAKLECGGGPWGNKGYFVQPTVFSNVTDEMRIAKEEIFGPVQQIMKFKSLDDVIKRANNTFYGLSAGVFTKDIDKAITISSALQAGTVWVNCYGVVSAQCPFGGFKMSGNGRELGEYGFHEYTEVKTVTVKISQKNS
SMILES,Potency,"activity, negative = inhibition"
O=[n+]1c2c(n([O-])c3cc(F)c(F)cc31)CCCC2,"inconclusive [inhibitor, single point]",
O=C(c1ccc(Cl)c(Cl)c1)N1CCC(=O)N(C(COCc2cccc(Cl)c2)Cc2ccccc2)CC1 (configuration not stated),"inconclusive [inhibitor, single point]",
CC(C)c1nnc(NC(=O)c2cccc(NC(=O)C(F)(F)F)c2)s1,active: 22.4 µM,
Cc1[nH]n(-c2ccccc2)c(=O)c1/C=N\NC(=O)C1COc2ccccc2O1 (configuration not stated),,inactive: -4.57%
COC(=O)C1=COC(C)C2CN3CCc4c([nH]c5ccccc45)C3CC12 (configuration not stated),,inactive: 9%
C=CCNC(=O)CCCOc1ccc(C)cc1,,inactive: 5.79%
O=S(=O)(CCN1C=CC(C(F)(F)F)=NCC1)c1ccc(Cl)cc1Cl,active: 12.6 µM,
Cc1ccc(CNC(=O)/C=C/C(=O)O)cc1,,inactive: 0.267%
Cc1occc1C(=O)Nc1cccnc1,"inconclusive [inhibitor, single point]",
O=C(O)CC1(CC(=O)NCc2ccncc2)CCCCC1,"inconclusive [inhibitor, single point]",
O=C(Nc1ccc2oc(-c3ccc(F)cc3)nc2c1)c1ccccc1F,"inconclusive [inhibitor, single point]",
CCC(=O)Nc1sc(Cc2ccccc2)c(C)c1C(N)=O,active: 22.4 µM,
COc1ccc(N=C2SC(CC(=O)Nc3ccc(F)cc3)C(=O)N2Cc2ccco2)cc1 (configuration not stated),active: 3.55 µM,
COC(=O)c1ccc(Oc2nc(Nc3ccc(C)c(C)c3)nc(N(C)C)n2)cc1,"inconclusive [inhibitor, single point]",
Cn1c(=O)[nH]c(=O)c2c1nc(N1CCCCC1)n2CCSc1nc2ccccc2o1,,inactive: 3.77%
CCOC(=O)C1=C(OCc2ccc(Cl)cc2)C2C=C(C)C=CC2N=C1 (configuration not stated),,inactive: 2.23%
NS(=O)(=O)c1ccc(NC(=S)NC(=O)C2CCCCC2)cc1,"inconclusive [inhibitor, single point]",
CC(C)CCSc1nc2c(c(=O)[nH]c(=O)n2C)n1CCc1ccccc1,"inconclusive [inhibitor, full curve]",
CCOC(=O)c1ccc(CNC(=O)c2cc(C(C)(C)C)oc2C)o1,active: 25.1 µM,
NNC(=O)c1ccc(COc2ccc3c(c2)CCC3)cc1,active: 7.94 µM,
COc1ccc(OC)c(-c2[nH]nc3c2C(c2ccco2)C(C#N)=C(N)O3)c1 (configuration not stated),"inconclusive [inhibitor, single point]",
CC1(C)Cc2c(sc3c2c(=O)n(-c2ccc(Cl)cc2)c(=O)n3CC(N)=O)CO1,"inconclusive [inhibitor, single point]",
NNC(=O)C1CCCn2c1nc1sc3c(c1c2=O)CCCC3 (configuration not stated),active: 12.6 µM,
O=C(COC(=O)c1ccc([N+](=O)[O-])o1)Nc1nc2ccccc2s1,active: 31.6 µM,
O=C(NCCC[N+]1=CC=N[C@H]1c1ccccc1)N1CCCc2nc(-c3ccc(Br)cc3)ccc21,,inactive: -6.3% [at 13.5 µM]
COc1ccccc1-n1nnnc1SCC(=O)Nc1ccccn1,active: 0.631 µM,

SMILES,Potency,"activity, negative = inhibition"
Cc1ccnc(NC(=O)c2cc(-n3cnnc3)ccc2Cl)c1,,inactive: -1.14%
CC(=O)Nc1ccc(N/C=C/C(=O)c2ccco2)cc1,active: 4.47 µM,
O=C(NN(C(=O)C1CC1)c1nc2ccccc2s1)C1CC1,"inconclusive [inhibitor, single point]",
C[C@H](N[C@@H](C)COc1ccccc1)[C@H](O)c1ccc(O)cc1,,inactive: 1.35% [at 20.9 µM]
Cn1c(SCC(=O)Nc2ccc3nc(SCC(=O)N4CCCC4)sc3c2)nnc1-c1ccc(N)cc1,active: 12.6 µM,
COc1cc(/C=C/C(=O)OCC(=O)NCc2ccco2)ccc1OCC#N,"inconclusive [inhibitor, partial curve]",
COc1ccc(Cl)cc1N1C(=O)C2CCCN2C1c1sccc1C (configuration not stated),"inconclusive [inhibitor, single point]",
Cc1csc(SCC(=O)NCCc2ccc(Cl)cc2Cl)n1,,inactive: 1.12%
Cc1onc(-c2c(Cl)cccc2Cl)c1C(=O)Nn1cnnc1,,inactive: 7.2%
O=C1C=C(NCc2ccc(Cl)cc2)CCC1,,inactive: 7.74%
COc1cccc(N=C2SC(C(=O)Nc3ccccc3F)CC(=O)N2C)c1 (configuration not stated),"inconclusive [inhibitor, partial curve, poor fit]",
CC(C)CCn1cnc2c(c1=O)c1nc3ccccc3nc1n2Cc1ccc2c(c1)OCO2,"inconclusive [inhibitor, full curve]",
COCCn1c(CN2CCN(c3cccc(Cl)c3)CC2)nc2c1c(=O)n(C)c(=O)n2C,"inconclusive [inhibitor, single point]",
COC(=O)c1ccccc1NC(=O)C1CCC(=O)N1S(=O)(=O)c1ccc(C)cc1 (configuration not stated),,inactive: 8.75%
COCc1cc(C)nc(OCC(=O)N/N=C/c2ccco2)c1C#N,"inconclusive [inhibitor, single point]",
Cc1cc(CNC(=O)[C@H](C)[C@H]2C[C@]2(C)[C@H](NC(=O)OCc2ccccc2)c2ccccc2)nn1C,active: 3.98 µM,
COc1ccc(C2CC(=O)N3C(=C2C#N)SCC3(O)c2ccccc2)cc1 (configuration not stated),"inconclusive [inhibitor, partial curve]",
CC(C)(C)SCCNC(=O)c1ccccc1,,inactive: -2.45%
Cc1cc(C)nc(N(C#N)CCOc2ccc(Cl)cc2)n1,"inconclusive [inhibitor, partial curve]",
CC1(C)CC(=O)C(C=Nc2ccc(N)cc2)=C(O)C1,active: 11.2 µM,
CCOC(=O)/C=C/C(=O)OCC(=O)Nc1ccc(OC)c(Cl)c1,"inconclusive [inhibitor, single point]",
Cc1cc(C)cc(SCc2noc(C(=O)NCC3CCCO3)c2C(=O)O)c1 (configuration not stated),,inactive: -0.171%
Cc1ccsc1/C=N/NC(=O)C(=O)NCC(C)C,,inactive: 10.7%
CCC(C(=O)NC1CCCC1)N(C(=O)c1snc(C(N)=O)c1N)c1ccc2c(c1)OCCO2 (configuration not stated),"inconclusive [inhibitor, partial curve]",
Cn1c(SCC(=O)N2CCN(c3ccccc3)CC2)nnc1-c1cc2ccccc2o1,"inconclusive [inhibitor, single point]",
COc1ccc(NC(=O)CCCSc2ccccc2)cc1,"inconclusive [inhibitor, full curve]",

SMILES,Potency,"activity, negative = inhibition"
O=C(NN=C1CCCCCCCCCCC1)c1cccnc1,,inactive: 1.84%
CCc1sc2nc(SCC(=O)Nc3cc(C)on3)n(-c3cccc(OC)c3)c(=O)c2c1C,"inconclusive [inhibitor, single point]",
C=CCN1C(=O)/C(=C\c2ccc(OC(=O)c3ccco3)c(OC)c2)SC1=S,active: 0.224 µM,
O=[N+]([O-])C(=C1SCCS1)C(=C(Cl)Cl)N1CCCCC1,"inconclusive [inhibitor, partial curve]",
CS(=O)(=O)N1CCN(C(=O)c2cc(-c3cccs3)nc3ccccc23)CC1,"inconclusive [inhibitor, partial curve]",
Cc1ccc(CNC(=O)C(Cc2ccccc2)NS(=O)(=O)c2cccs2)cc1 (configuration not stated),"inconclusive [inhibitor, single point]",
Cc1ccc(NC(=S)Nc2ccc(S(=O)(=O)Nc3ncccn3)cc2)cc1Cl,"inconclusive [inhibitor, partial curve]",
COc1cc(/C=c2\s/c(=C(/C#N)C(=O)N3CCCC3)n(-c3ccccc3)c2=O)ccc1O,,inactive: 23.5%
CN1CCN(c2ncc3nc(-c4ccc(Cl)cc4)c(=O)n(Cc4cccs4)c3n2)CC1,,inactive: -1.89%
CCc1nnc(NC(=O)CSc2nnc(-c3ccco3)n2C)s1,,inactive: 2.95%
CCOc1cc(N2CCOCC2)c(OCC)cc1NC(C)C(=O)N1CCN(CC)CC1 (configuration not stated),active: 22.4 µM,
Cc1nc2c(C(=O)NCCC(C)C)c[nH]n2c(=O)c1Cc1ccccc1F,,inactive: -4.28%
CN1C(=O)/C(=C\c2ccccc2)Sc2ccc(C(=O)N3CCN(c4ccccn4)CC3)cc21,"inconclusive [inhibitor, single point]",
Cc1nc2c(C(=O)N3CCOCC3)cnn2c(C)c1Cc1cccc(Cl)c1,"inconclusive [inhibitor, single point]",
CCCn1c(=O)[nH]c2nc(-c3ccc(S(=O)(=O)O)cc3)[nH]c2c1=O,"inconclusive [inhibitor, full curve]",
Cc1c(S(=O)(=O)O)ccc(N=Nc2c(O)c(C(=O)O)cc3ccccc23)c1Cl,active: 3.55 µM,
O=c1cnc2cnc(Nc3ccccc3)nc2n1Cc1cccs1,,inactive: 0.73%
O=C(Nc1cccc(S(=O)(=O)NCc2ccco2)c1)c1cc(-c2ccc(F)cc2)nc2ccccc12,"inconclusive [inhibitor, single point]",
NS(=O)(=O)c1ccc(NC(=O)/C=C/c2ccco2)cc1,active: 23.8 µM,
Cc1sc2ncnc(NCCCO)c2c1C,,inactive: 5.81%
CC1CC(C)CN(CC(=O)Nc2ccc3c(c2)OCCO3)C1 (configuration not stated),"inconclusive [inhibitor, single point]",
COc1ccccc1-c1c(C#N)c(N)nc2c1CCC2,"inconclusive [inhibitor, partial curve]",
O=C(NC(=S)Nc1ccc(N2CCOCC2)cc1)c1ccco1,"inconclusive [inhibitor, single point]",
O=C(NNC(=O)c1ccc(-c2ccccc2)cc1)c1ccccc1,,inactive: 1.7%
O=C(O)COc1ccc2c3c(c(=O)oc2c1)CCC3,"inconclusive [inhibitor, single point]",
